According to publication doi:10.1101/2022.01.13.476208:

Biological target: Wild-type GPIbα, residues 1-290, without Avi-tag
Experiment: ITC
Conditions: domain or fragment, chains chain

Chain of Wild-type GPIbα, residues 1-290, without Avi-tag (P07359 17-306): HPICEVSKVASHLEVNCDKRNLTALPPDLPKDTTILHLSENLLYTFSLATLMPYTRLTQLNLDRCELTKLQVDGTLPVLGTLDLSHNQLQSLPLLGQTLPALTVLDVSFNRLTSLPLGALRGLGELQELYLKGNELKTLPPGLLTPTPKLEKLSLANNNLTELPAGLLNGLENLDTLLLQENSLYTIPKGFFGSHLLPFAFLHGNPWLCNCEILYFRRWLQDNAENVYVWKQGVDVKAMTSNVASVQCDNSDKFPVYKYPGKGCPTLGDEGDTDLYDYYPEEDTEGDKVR

Kd [nM] | Kd (O-glycosylated C-linker) [nM] | Substance
290 | – | A1 short (a stretch of the chain, no sequence given)
– | 1150 | A1+OGly+C (a stretch of the chain, no sequence given)
